Reference: PMC10692916, “Protein arginine N-methyltransferase 2 plays a noncatalytic role in the histone methylation activity of PRMT1” (The Journal of Biological Chemistry, 2023)

Target: the molecule itself
Assay: native gel or EMSA; mCer-PRMT1 and mCit-PRMT2, 1 uM each, alone or mixed, 1 h at 37 °C in methylation buffer without SAH or H3 peptide; 4-20% native PAGE, fluorescence imaging

B1: mCer-PRMT1 (mCerulean fusion of PRMT1) (enzyme)
chain: not shown
notes: PRMT1, human, […] printed for PRMT1 in the same sentence; cloned in pET28a(+); also called mCerulean-PRMT1; source: E. coli Rosetta (DE3), purified (Ni-NTA, Superdex 200 SEC)
**Q.** Does B1 bind?
**A.** binds
